Screen size: about 410,000 compounds; about 7,200 (1.8%) were called active. Inconclusive results, whose numbers are uncertain, are shown with a selection of clear calls. Calls follow the shape of the dose curve; as a rule, active = well fitted activation curve with a large enough effect; inconclusive = small, poorly fitted or top-dose-only effect, or another doubt; inactive = no such curve, though single readings can be large or run the other way. A potency beside an inconclusive call is a rough fit, not a confirmed value.
test: qHTS of TDP-43 Inhibitors; conditions: TDP-43 expressing yeast growth rescue, BacTiter-Glo, 24 h; growth rescue (activation): at 46.1 µM (top of the series) unless noted; also: nearly all actives have a fitted effect of over 50% in size; as to growth rescue (activation): % of control where 0% means no effect
Method in brief: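 In this qHTS, compounds that restore growth of yeast expressing TDP-43 appear as activators. Cells (OD600=0.02, galactose medium, raffinose-pregrown) are incubated with compound 24 hr at 30 deg C and growth is quantified by BacTiter-Glo.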
Potency is read from the fitted curve at half-maximal effect; tags tell the direction and shape of the fitted curve.

Potency, active:
O=C(CSc1ncnc2sccc12)NCc1ccc2c(c1)OCO2 15.8 µM
CCOc1ccccc1NC(C)C(=O)Nc1cc(C(F)(F)F)ccc1N1CCOCC1 (stereo not given) 12.6 µM
COc1ccc(C(=O)c2sc(Nc3ccccc3)nc2C)cc1 25.1 µM
Cc1cc(SCC(=O)N(C)C2CCCCC2)nc2ccccc12 17.8 µM
Cc1cccc(N2CCN(C(=O)c3cccs3)CC2)c1C 5.62 µM
OCc1ccccc1-c1ccc2nncn2c1 35.5 µM
O=C(NCCc1csc(-c2ccc(C(F)(F)F)cc2)n1)c1ccc(F)c(F)c1 25.1 µM
Cc1ccnc(Nc2nc(-c3ccc(O)cc3O)cs2)c1 15.8 µM

Potency, inconclusive:
Cc1cc(=O)n(C(C)C(=O)N2CCCc3ccccc32)c2c1c(C)nn2-c1ccccc1 (stereo not given) 17.8 µM [activator, single point]
CC(/C=N/NC(=O)c1cccc(F)c1)=C\c1ccccc1 7.08 µM [activator, full curve]
O=C(CN1C(=O)COc2ccc(S(=O)(=O)N3CCCCCC3)cc21)Nc1cccc(Cl)c1 5.62 µM [activator, full curve, poor fit]
CC1CCc2sc(C(=O)NNC(=S)NC3CC3)cc2C1 (stereo not given) 11.2 µM [activator, single point]
Cc1nnc(N(C)C(=O)Cc2ccc3c(c2)OCO3)s1 4.47 µM [activator, single point]
COc1ccc(NC(=O)CCS(=O)(=O)c2nc(-c3ccc4c(c3)OCO4)cc(C(F)(F)F)n2)cc1 11.2 µM [activator, partial curve]
Cc1csc(NC(=O)CCn2c(=O)sc3ccccc32)n1 39.8 µM [activator, partial curve, poor fit]
O=C(NCCC1CCCCN1S(=O)(=O)c1ccccc1)C(=O)Nc1ccc(F)cc1F (stereo not given) 31.6 µM [activator, partial curve]
COc1ccccc1C(=O)COC(=O)c1ccc(Cl)nc1 10 µM [activator, partial curve]
Cc1ccc(SCCn2nc(C(=O)O)c3ccccc3c2=O)cc1 10 µM [activator, partial curve]
CCC(c1ccccc1)c1nc(-c2cccnc2)no1 (stereo not given) 25.1 µM [activator, single point]
CC1(C(=O)NS(=O)(=O)c2ccccc2)CCN1C(=O)c1ccccc1CCc1ccccc1 (stereo not given) 20 µM [activator, partial curve, poor fit]
O=C(COc1ccc(Cl)cc1)N1CCN(Cc2ccc3c(c2)OCO3)CC1 35.5 µM [activator, partial curve, poor fit]
Cc1ccc(Cl)c(OCC(=O)N(C)CC(=O)Nc2ccc(N3CCOCC3)cc2)c1 2.51 µM [activator, full curve, poor fit]
N#Cc1c(NC(=O)Cn2nc(C(F)(F)F)c3c2CCCC3)sc2c1CCC2 11.2 µM [activator, single point]
Cc1ccc(Cl)cc1NC(=O)C1COc2ccccc2O1 (stereo not given) 2.51 µM [activator, full curve]
OC[C@@H]1CN(Cc2cccc(C(F)(F)F)c2)C[C@H](n2cnc3c(NCc4ccc(F)cc4)ncnc32)O1 6.31 µM [activator, partial curve]
Cc1ccc(CSCCNC(=O)CSc2ccccc2)cc1 14.1 µM [activator, single point]
COc1ccc(-c2ccc(C(=O)Nc3cccc(C(C)=O)c3)c3occc23)c(C)c1 39.8 µM [activator, partial curve, poor fit]
Cc1ccccc1CNS(=O)(=O)c1ccccc1[N+](=O)[O-] 35.5 µM [activator, partial curve]
FC(F)(F)c1nnc(-c2ccccc2)nc1Sc1ccccc1 35.5 µM [activator, single point]
COC(=O)c1c(NC(=O)c2cccnc2)sc(C)c1C 15.8 µM [activator, partial curve]
O=C(Nc1nnc(-c2cc(Cl)ccc2Cl)o1)c1ccc2c(c1)OCCO2 25.1 µM [activator, partial curve]
Cc1ccccc1-c1cc(C(=O)NCC2CC2)nn1CC1CC(c2cccc([N+](=O)[O-])c2)=NO1 (stereo not given) 1.26 µM [activator, full curve]
Cc1ccc(NC(=S)NCCc2c[nH]c3ccccc23)cc1 12.6 µM [activator, single point]
COc1ccc(NC(=O)CCS(=O)(=O)c2nc(-c3cccs3)cc(C(F)(F)F)n2)cc1 8.91 µM [activator, partial curve]
O=C(COC(=O)CCSc1ccc(Cl)cc1)NCc1ccc(Cl)cc1 12.6 µM [activator, single point]
Cc1ccc(N/C(=N/S(=O)(=O)c2cccs2)c2ccccc2)c(C)c1 31.6 µM [activator, partial curve]
CC/C(=N\Nc1ccc([N+](=O)[O-])cc1)c1ccccc1 11.2 µM [activator, partial curve]
C/C(N)=C(/C#N)C(=O)COC(=O)c1cc2c(s1)CCC(C)C2 (stereo not given) 31.6 µM [activator, single point]
Cc1cccc(NC2=Nc3ccccc3N3C2=Nc2c(c(C)nn2-c2ccccc2)C3c2ccc(O)c(O)c2)c1 (stereo not given) 10 µM [activator, partial curve]
O=C1c2ccccc2CSc2c(O)cccc21 14.1 µM [activator, single point]
Cc1ccc(C)c(C(=O)CSc2n[nH]c(-c3ccncc3)n2)c1 8.91 µM [activator, partial curve, poor fit]
N#Cc1c(-c2cccs2)cc(-c2cccnc2)nc1N 3.55 µM [activator, partial curve, poor fit]
CCN(CC)c1ccc(NC(=O)OC)cc1 3.55 µM [activator, partial curve]
COCCN(C(=S)Nc1c(C)cccc1C)C(C)c1cccs1 (stereo not given) 22.4 µM [activator, partial curve]
COCCNC(=S)N/N=C(\C)c1cc2ccccc2o1 4.47 µM [activator, full curve, poor fit]
CNc1ccc(SC#N)cc1 35.5 µM [activator, single point]
Cn1cccc1C(=O)c1ccc(Cl)cc1Cl 6.31 µM [activator, partial curve, poor fit]
COc1nc(Nc2ccc3c(c2)OCO3)nc(OC)n1 22.4 µM [activator, single point]
Cc1ccc(C(=O)N2CCc3cc(CNC(=O)CSc4ccccc4)ccc32)cc1 22.4 µM [activator, single point]
O=C(CC1N=C2c3ccccc3N=C(SCc3ccc(F)cc3)N2C1=O)NC1CCCCC1 (stereo not given) 31.6 µM [activator, single point]
CCOc1ccc2nc(SCc3ccc(C(=O)OC)o3)[nH]c2c1 14.1 µM [activator, single point]
O=C(O)c1cc(S(=O)(=O)NCCOc2ccccc2)ccc1Cl 3.98 µM [activator, partial curve]

Potency, inactive:
CCN(CC)S(=O)(=O)c1cccc(C(=O)N2CC(O)CC2C(=O)O)c1 (stereo not given)
CSc1ccc(C2CC(=O)Oc3c2c(=O)n(C)c2ccccc32)cc1 (stereo not given)
Cc1c(C(=O)N2CCN(Cc3ccc4c(c3)OCO4)CC2)sc2ncnc(N3CCN(c4ccccc4)CC3)c12
CC1Cn2c(C(=O)NCCc3ccc(Cl)cc3)cc3cccc(c32)S1 (stereo not given)
CCCCn1c(=N)c(S(=O)(=O)c2ccc(C)cc2)cc2c(=O)n3cc(C)ccc3nc21
O=C(c1cc(Br)ccc1O)N1CCN(S(=O)(=O)Cc2ccccc2)CC1
CC(C)CNc1ncnc2[nH]ncc12
CCc1ccc(NS(=O)(=O)c2ccc3oc(=O)c4ncn(CC)c4c3c2)cc1
COc1cccc(-c2nc(NCc3cccnc3)c3ccccc3n2)c1O
COc1cccc(C2c3c(oc4cc(C)cc(C)c4c3=O)C(=O)N2CCc2ccc(OC)c(OC)c2)c1 (stereo not given)
Cc1ccc(Cl)cc1Nc1nn2c(=O)c3ccc(C(=O)Nc4ccc(F)cc4)cc3nc2s1
COc1ccccc1N1CCN(C(=O)Cn2ncc3ccsc3c2=O)CC1
CCc1ccc(NC(=O)CCS(=O)(=O)c2cc3c(cc2Cl)NC(=O)CO3)cc1
COc1cc(C2CC(=O)Oc3cc4c(cc32)OCO4)cc(OC)c1OC (stereo not given)
Cc1noc(C)c1S(=O)(=O)Nc1ccccc1OC(F)(F)F
Cc1cccc(NC(=O)Cn2c(=O)n(Cc3ccccc3)c(=O)c3sc4ccccc4c32)c1

Growth rescue (activation), inconclusive:
CCCCOc1ccc(C(=O)NNC(=S)NC(=O)CC)cc1 -53.6% [activator]

Growth rescue (activation), inactive:
CN(C)C1(CNC(=O)COc2ccc([N+](=O)[O-])cc2)CCCCC1 5.21% [at 9.22 µM]

— PubChem BioAssay AID652104 (National Center for Advancing Translational Sciences (NCATS), 2013)
